Assay results from publication PMC12136788.
This is one part of the list.

T1: UNK ZnF1-6 (called full-length) (human, UniProt Q9C0B0 30-357)
T1 sequence: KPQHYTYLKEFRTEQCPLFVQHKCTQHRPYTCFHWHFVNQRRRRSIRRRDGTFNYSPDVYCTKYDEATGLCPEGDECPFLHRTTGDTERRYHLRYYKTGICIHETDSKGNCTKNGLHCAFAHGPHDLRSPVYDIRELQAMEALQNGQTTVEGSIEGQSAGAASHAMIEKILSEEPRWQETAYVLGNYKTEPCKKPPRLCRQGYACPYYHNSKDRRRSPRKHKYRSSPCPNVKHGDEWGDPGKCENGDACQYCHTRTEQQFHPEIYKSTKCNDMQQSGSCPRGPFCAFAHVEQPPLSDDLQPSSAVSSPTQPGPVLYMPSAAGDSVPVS

B1: chr15:59031169:59031386:+|CDS|ENSG00000157450|unk|FALSE|unique (ssRNA)
RNA: GGGAGUUCUACAGUCCGACGAUCACACCAAGUGAUGAAGAUAAUGAUUCCUCUUUUAGUGAUUGUCUUUCUUCUCCUUCAUCUAGUCUGCAUUUUGGAGAUUCUGAUACUGUGACUUCAGAUGAGGAUAAAGAAGUCUCUGUACAACAGAGGAUUGAGCAUCA
B2: chr1:215620365:215620495:+|CDS|ENSG00000136636|unk|total|mutant (ssRNA)
RNA: GGGAGUUCUACAGUCCGACGAUCGGUUUUUCAGAAUCCAAGAAAAGGUCAUCAGAAGAUGAAAAUGAAAAUAAAACCGAGUUCCGGAAGAAAGGAGGAUUUGAAGGGGGAGGAUUCCUUGGAAGAAAGAAAGUUCCCUAUCUGCAACAGAGGAUUGAGCAUCA
B3: chr12:14497711:14497812:+|CDS|ENSG00000171681|unk|total|mutant (ssRNA)
RNA: GGGAGUUCUACAGUCCGACGAUCACAGCGUCUGCCCCCAGAAGCUGCCAGCACAUCUCUGCCUCAGAAGCCACACUUGAAGUCCGCACGCGUUCAGAGUCAAAAUGGCACCGUACUGUCAUGGAGUGUCCUGGAGGUGGAUCGCAACAGAGGAUUGAGCAUCA
B4: chr13:113500007:113500108:+|CDS|ENSG00000150403|unk|FALSE|unique (ssRNA)
RNA: GGGAGUUCUACAGUCCGACGAUCGAAGAGGCCAAUUCUAAGCAAAAUAUAACAAAACGAGAAGUGGAGGAUGACUUGGGUCUUAGCAUGCUGAUUGACUCCCAGAACAACCAGUAUAUUUUGACCAAGCCCAGAGAUUCAACCCAACAGAGGAUUGAGCAUCA
B5: chr7:13894654:13894755:-|3pUTR|ENSG00000006468|msi1|FALSE|unique (ssRNA)
RNA: GGGAGUUCUACAGUCCGACGAUCUAUUCUCUUUCAUGCUGAAUUUACUAUGACCAUUUAUAAGCAGUGCAGUUAACUACAGAUAGCAUUUCAGGACAAAAUAGAUGACUCAAACCAUUUAUUGCUUAAAAAAUAGCUUACGCCCAACAGAGGAUUGAGCAUCA
B6: chr6:122458524:122458701:-|CDS|ENSG00000111897|unk|FALSE|unique (ssRNA)
RNA: GGGAGUUCUACAGUCCGACGAUCGGAAGUGCCCCGUGUUUGCUAUGCCGAUGCUGUCCUAGUGGAAACAACUCCACUGUAACUAGAUUGAUCUAUGCACUUUUCUUGCUUGUUGGAGUAUGUGUAGCUUGUGUAAUGUUGAUACAACAGAGGAUUGAGCAUCA
B7: chr10:63621301:63621396:+|3pUTR|ENSG00000165476|msi1_unk|total|mutant (ssRNA)
RNA: GGGAGUUCUACAGUCCGACGAUCUGUAAGAUAAUAAAGCCGGUUUUAUAUAUUCUUUAAAUUUUUACUUAUAUAAUACUUUCCCGUUUUUCCACCAUCAGCUGAAAGUUUUUGAAACAAAUAUUUGAAAACCAGGUAUCCACACAACAGAGGAUUGAGCAUCA
B8: ENSG00000124766:be:win_851|CDS|ENSG00000124766|bound_else_gene|NA|bound_elsewhere_windowed (ssRNA)
RNA: GGGAGUUCUACAGUCCGACGAUCCGGGCAAGCACCUGGCGGAGAAGAAGGUGAAGCGCGUCUACCUGUUCGGCGGCCUGGGCACGUCGUCGUCGCCCGUGGGCGGCGUGGGCGCGGGAGCCGACCCCAGCGACCCCCUGGGCCCAACAGAGGAUUGAGCAUCA
B9: chrX:48700291:48700392:+|CDS|ENSG00000101945|unk|FALSE|unique (ssRNA)
RNA: GGGAGUUCUACAGUCCGACGAUCGCUCCGUCGCUGGGAGCAGGAGCUCAAUGCCAAGCGCAGCCAUCUGGGACGCAUCACUGUAGAGAAUGAGGUGGACCUGGACGGCCCUCCGCGGGCCUUCGUGUACAUCAAUGAGUACCGCAACAGAGGAUUGAGCAUCA
B10: chr1:169376695:169376796:+|CDS|ENSG00000117475|unk|total|mutant (ssRNA)
RNA: GGGAGUUCUACAGUCCGACGAUCUCUUCAGCCCGGGAAAAUGCUCACUGAAAAAGCAAUGGAAGUUAAAGCUGUAAGAAUAUCCGUUCCCAAAGCUGCUAUAACUCAUGAUAUCCCCAACAAAAAUACAAAGGUUAAGUCUCUCAACAGAGGAUUGAGCAUCA
B11: ENSG00000150347:stop:overlap|stop_codon|ENSG00000150347|stop_codon|NA|stop_codon (ssRNA)
RNA: GGGAGUUCUACAGUCCGACGAUCAUCCUCAAGCUGCCUUUCCAUCUUCCCAGCUGUCAUCCGUGCACCCCAGUACAAAACUGUAGGCUCAGCUCUGCCCAGCAGUCCAAAGCGGCAUGGCCAACAGAGCUUCACUCCUUACCCCAACAGAGGAUUGAGCAUCA
B12: chr5:178210945:178211047:+|3pUTR|ENSG00000197451|unk|total|mutant (ssRNA)
RNA: GGGAGUUCUACAGUCCGACGAUCCUGCUGCCGCUCUGCAGCCUGGACCUGUGGACCCUGGUUGUAAAGAGUAAAUUGUAUCUCCGGAAACCAGUGUCACCUUUUUUUCACCUUUUAAUUUUAUAUUAUUUGCGUCAUACAUUUCAACAGAGGAUUGAGCAUCA
B13: chr3:170996346:170998103:-|three_prime_utr|ENSG00000163581|control|control|control (ssRNA)
RNA: GGGAGUUCUACAGUCCGACGAUCGGAAAUUGCUGCAGAAUUCCAAAAGAAGAGUGGCUCAGCCCACAGGCCAAAAGCUGCUGUAGAAAUGAAAUUCCUAGGAGCUACAGAGACUGUGUAAAAAAAAAACCCUGCUUUUUGACACAACAGAGGAUUGAGCAUCA
B14: chr1:28768968:28769069:+|3pUTR|ENSG00000198492|msi1|total|mutant (ssRNA)
RNA: GGGAGUUCUACAGUCCGACGAUCGACUGCAGCAACGGUUGCAUCUGCAUAUCCUAAGAGGAAAAAAUGACCUUCAAGAGAAUCCGGACUUUUUUCUUAAUUUCACUGACUUCAGAGACGAUUGCAGACUUGCAGUUUAAGUAUCAACAGAGGAUUGAGCAUCA
B15: chr1:71064632:71064733:-|3pUTR|ENSG00000132485|msi1|total|mutant (ssRNA)
RNA: GGGAGUUCUACAGUCCGACGAUCGCUAAGACAGGAUUACCCCGGCUUGCCUGAACUUUGGGCAUGGAAGAAAGACUGGAAACCCGUUGGAAACAACAUACUUAUGGAAAAGAAAGUCAGCCUUUUUAUGCUGUUAACAGAUGUCAACAGAGGAUUGAGCAUCA
B16: chr4:186619803:186619904:-|CDS|ENSG00000083857|msi1|total|mutant (ssRNA)
RNA: GGGAGUUCUACAGUCCGACGAUCAGACGGAGACCCUUUCAGCCAGUUCACUAUUAACUUCAAUACUGGAGUUAUCAAUGUCACCGCUCCUCUGGACUUUGAGGCCCACCCGGCAUAUAAGCUGAGCAUACGCGCAACUGACUCCAACAGAGGAUUGAGCAUCA
B17: ENSG00000107863:be:win_2751|CDS|ENSG00000107863|bound_else_gene|NA|bound_elsewhere_windowed (ssRNA)
RNA: GGGAGUUCUACAGUCCGACGAUCCUCUGGGUCCAGAAAAGAUUCUUCCUCAGAGGUCUUCAGUGAUGCUGCCAAGGAAGGGUGGCUUCAUUUCCGACCCCUUGUCACCGAUAAGGGCAAGCGAGUUGGUGGAAGUAUUCGGCCCAACAGAGGAUUGAGCAUCA
B18: chr7:101138022:101138407:+|3pUTR|ENSG00000106366|msi1|total|mutant (ssRNA)
RNA: GGGAGUUCUACAGUCCGACGAUCCUCUUGGUGGGGAGGGGUGUACCUAAAUAUUUAUCAUAUCCUUGCCCUUGAGUGCUUGUCCGAGAGAAAGAGAACUACUAAGGAAAAUAAUAUUAUUUAAACUCGCUCCCCGUGUUUCUUCAACAGAGGAUUGAGCAUCA
B19: ENSG00000185219:stop:overlap|stop_codon|ENSG00000185219|stop_codon|NA|stop_codon (ssRNA)
RNA: GGGAGUUCUACAGUCCGACGAUCGAAAGACCUUCAGGUGGUCUUCGAACCUGGCUCGGCAUAUGAAAAACCAUAUUAGAGAUUAGCCUGGGACCUGACAGUGACAGUGGGGGUGGGUUCUCAGUCCCCUGCUAGAGAACCCUUCAACAGAGGAUUGAGCAUCA
B20: chr14:53043751:53043854:-|3pUTR|ENSG00000100523|unk|total|mutant (ssRNA)
RNA: GGGAGUUCUACAGUCCGACGAUCACUCCGAUUAAAUCUUGCUUUAUUUUUACUUUAAAAUCCGUCUUGCUAAGGCCUUAUGUCCGUUCAUACUUUCUUUUCAACAGUAAUCUUGUUUAUAAUCCAGUGUUUCUGUGUUUCCGGCAACAGAGGAUUGAGCAUCA
B21: chr2:223959526:223959698:+|CDS|ENSG00000135900|unk|total|mutant (ssRNA)
RNA: GGGAGUUCUACAGUCCGACGAUCCUGGGAUUACCAUGCAGAAAUACAAGCUUUUGGACAUCGGUUACAGGAAAACUUUUCCUCCGAUCUUCUCAAAACUGCAUUUGUUAACCGCUGCUAUAUUAAAAGUGAGGAGGCCAAACGCAACAGAGGAUUGAGCAUCA
B22: chr5:157463210:157463311:+|CDS|ENSG00000172548|unk|FALSE|unique (ssRNA)
RNA: GGGAGUUCUACAGUCCGACGAUCCAGGAAAGAAUCAGGCAGAACUAUGGCUUCUACAUCGGCCUGGGCCUGGCAUUCCUGUCUAGCUUCCUCAUCGGCAGCAGCGUCAUCCUCAAGAAGAAAGGCCUCUUGCGACUCGUGGCCCAACAGAGGAUUGAGCAUCA

These binders were tested against T1, UNK ZnF1-6 (called full-length) (assay: nsRBNS (natural sequence RNA bind-n-seq); RBNS binding buffer (assumed for nsRBNS): 25 mM Tris pH 7.5, 150 mM KCl, 3 mM MgCl2, 0.01% Triton X-100, 500 ug/ml BSA, 20 U/ml SUPERase-In, 4 C; UNK is unkempt and MSI1 is Musashi-1; names of the RNAs are library labels; protein concentration not given here; high values mean tight binding).

| Binder | binding signal [enrichment R] |
| --- | --- |
| B1 | 0.51 |
| B2 | 0.698 |
| B3 | 0.64 |
| B4 | 0.624 |
| B5 | 0.593 |
| B6 | 0.713 |
| B7 | 1.56 |
| B8 | 0.765 |
| B9 | 0.617 |
| B10 | 0.322 |
| B11 | 0.909 |
| B12 | 0.66 |
| B13 | 0.91 |
| B14 | 0.365 |
| B15 | 0.548 |
| B16 | 0.539 |
| B17 | 0.437 |
| B18 | 1.32 |
| B19 | 0.79 |
| B20 | 0.954 |
| B21 | 0.446 |
| B22 | 0.816 |
